Test results: the supplement of paper PMC8728848
This is one part of the list.

Key:
Test in all cases: glycan array binding signal (z-score within array); higher = stronger binding
Conditions in all cases: glycan notation: IUPAC condensed, linker removed
[1] = target: Neu5Ac(a2-3)Gal(b1-4)GlcNAc(b1-2)[Neu5Ac(a2-3)Gal(b1-4)GlcNAc(b1-4)]Man(a1-3)[GlcNAc(b1-4)][Neu5Ac(a2-3)Gal(b1-4)GlcNAc(b1-4)Man(a1-6)]Man(b1-4)GlcNAc(b1-4)GlcNAc
Summary of the method: (§1)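 Glycan array data were curated from 3228 arrays in the Consortium for Functional Glycomics database and kept only where the protein sequence was available. Glycan names were converted to IUPAC-condensed notation, and columns mapping to the same glycan were averaged. The binding signal is a within-array Z-score, averaged across arrays of the same protein sequence at different concentrations or buffers and across linkers. Negative Z-scores can be read as non-binding.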

[2] = target: Neu5Ac(a2-3)Gal(b1-4)GlcNAc(b1-2)[Neu5Ac(a2-3)Gal(b1-4)GlcNAc(b1-6)]Man(a1-6)[Neu5Ac(a2-3)Gal(b1-4)GlcNAc(b1-2)Man(a1-3)]Man(b1-4)GlcNAc(b1-4)GlcNAc
Summary of the method: as §1

[3] = target: Neu5Ac(a2-3)Gal(b1-4)GlcNAc(b1-2)[Neu5Ac(a2-3)Gal(b1-4)GlcNAc(b1-6)]Man(a1-6)[Neu5Ac(a2-3)Gal(b1-4)GlcNAc(b1-2)Man(a1-3)][GlcNAc(b1-4)]Man(b1-4)GlcNAc(b1-4)GlcNAc
Summary of the method: as §1

[4] = target: Neu5Ac(a2-3)Gal(b1-4)GlcNAc(b1-3)Gal
Summary of the method: as §1

[5] = target: Neu5Ac(a2-3)Gal(b1-4)GlcNAc(b1-3)Gal(b1-3)GlcNAc
Summary of the method: as §1

[6] = target: Neu5Ac(a2-3)Gal(b1-4)GlcNAc(b1-3)Gal(b1-4)GlcNAc
Summary of the method: as §1

[7] = target: Neu5Ac(a2-3)Gal(b1-4)GlcNAc(b1-3)Gal(b1-4)GlcNAc(b1-2)Man(a1-3)[Neu5Ac(a2-3)Gal(b1-4)GlcNAc(b1-3)Gal(b1-4)GlcNAc(b1-2)Man(a1-6)]Man(b1-4)GlcNAc(b1-4)GlcNAc
Summary of the method: as §1

[8] = target: Neu5Ac(a2-3)Gal(b1-4)GlcNAc(b1-3)Gal(b1-4)GlcNAc(b1-3)Gal(b1-4)GlcNAc
Summary of the method: as §1

[9] = target: Neu5Ac(a2-3)Gal(b1-4)GlcNAc(b1-3)Gal(b1-4)GlcNAc(b1-3)Gal(b1-4)GlcNAc(b1-2)Man(a1-3)[Neu5Ac(a2-3)Gal(b1-4)GlcNAc(b1-3)Gal(b1-4)GlcNAc(b1-3)Gal(b1-4)GlcNAc(b1-2)Man(a1-6)]GalNAc
Summary of the method: as §1

[10] = target: Neu5Ac(a2-3)Gal(b1-4)GlcNAc(b1-3)Gal(b1-4)GlcNAc(b1-3)GalNAc
Summary of the method: as §1

[11] = target: Neu5Ac(a2-3)Gal(b1-4)GlcNAc(b1-3)Gal(b1-4)GlcNAc(b1-3)[Neu5Ac(a2-3)Gal(b1-4)GlcNAc(b1-3)Gal(b1-4)GlcNAc(b1-6)]GalNAc
Summary of the method: as §1

[12] = target: Neu5Ac(a2-3)Gal(b1-4)GlcNAc(b1-3)Gal(b1-4)GlcNAc(b1-6)[Gal(b1-3)]GalNAc
Summary of the method: as §1

[13] = target: Neu5Ac(a2-3)Gal(b1-4)GlcNAc(b1-3)Gal(b1-4)[Fuc(a1-3)]GlcNAc
Summary of the method: as §1

[14] = target: Neu5Ac(a2-3)Gal(b1-4)GlcNAc(b1-3)GalNAc
Summary of the method: as §1

[15] = target: Neu5Ac(a2-3)Gal(b1-4)GlcNAc(b1-3)[Neu5Ac(a2-3)Gal(b1-4)GlcNAc(b1-6)]GalNAc
Summary of the method: as §1

[16] = target: Neu5Ac(a2-3)Gal(b1-4)GlcNAc(b1-6)GalNAc
Summary of the method: as §1

[17] = target: Neu5Ac(a2-3)Gal(b1-4)GlcNAc(b1-6)[Gal(b1-3)]GalNAc
Summary of the method: as §1

[18] = target: Neu5Ac(a2-3)Gal(b1-4)GlcNAc(b1-6)[Neu5Ac(a2-3)Gal(b1-3)]GalNAc
Summary of the method: as §1

[19] = target: Neu5Ac(a2-3)Gal(b1-4)GlcNAc6S
Summary of the method: as §1

[20] = target: Neu5Ac(a2-3)Gal(b1-4)[Fuc(a1-3)]GlcNAc
Summary of the method: as §1

[21] = target: Neu5Ac(a2-3)Gal(b1-4)[Fuc(a1-3)]GlcNAc(b1-2)Man
Summary of the method: as §1

[22] = target: Neu5Ac(a2-3)Gal(b1-4)[Fuc(a1-3)]GlcNAc(b1-3)Gal
Summary of the method: as §1

[23] = target: Neu5Ac(a2-3)Gal(b1-4)[Fuc(a1-3)]GlcNAc(b1-3)Gal(b1-4)GlcNAc
Summary of the method: as §1

[24] = target: Neu5Ac(a2-3)Gal(b1-4)[Fuc(a1-3)]GlcNAc(b1-3)Gal(b1-4)[Fuc(a1-3)]GlcNAc(b1-3)Gal(b1-4)[Fuc(a1-3)]GlcNAc
Summary of the method: as §1

[25] = target: Neu5Ac(a2-3)Gal(b1-4)[Fuc(a1-3)]GlcNAc(b1-3)GalNAc
Summary of the method: as §1

[26] = target: Neu5Ac(a2-3)Gal(b1-4)[Fuc(a1-3)]GlcNAc(b1-6)[Gal(b1-3)]GalNAc
Summary of the method: as §1

[27] = target: Neu5Ac(a2-3)Gal(b1-4)[Fuc(a1-3)]GlcNAc(b1-6)[Neu5Ac(a2-3)Gal(b1-3)]GalNAc
Summary of the method: as §1

[28] = target: Neu5Ac(a2-3)Gal(b1-4)[Fuc(a1-3)]GlcNAc6S
Summary of the method: as §1

[29] = target: Neu5Ac(a2-3)Gal6S(b1-4)GlcNAc
Summary of the method: as §1

[30] = target: Neu5Ac(a2-3)Gal6S(b1-4)[Fuc(a1-3)]GlcNAc
Summary of the method: as §1

Neu5Ac(a2-3)GalNAc = target: Neu5Ac(a2-3)GalNAc
Summary of the method: as §1

[31] = target: Neu5Ac(a2-3)GalNAc(b1-4)GlcNAc
Summary of the method: as §1

[32] = target: Neu5Ac(a2-3)[GalNAc(b1-4)]Gal(b1-4)Glc
Summary of the method: as §1

[33] = target: Neu5Ac(a2-3)[GalNAc(b1-4)]Gal(b1-4)GlcNAc
Summary of the method: as §1

[34] = target: Neu5Ac(a2-3)[GalNAc(b1-4)]Gal(b1-4)GlcNAc(b1-3)GalNAc
Summary of the method: as §1

[35] = target: Neu5Ac(a2-3)[Neu5Ac(a2-6)]GalNAc
Summary of the method: as §1

Neu5Ac(a2-6)Gal = target: Neu5Ac(a2-6)Gal
Summary of the method: as §1

[36] = target: Neu5Ac(a2-6)Gal(b1-3)GlcNAc(b1-3)[Gal(b1-4)GlcNAc(b1-6)]Gal(b1-4)Glc
Summary of the method: as §1

Neu5Ac(a2-6)Gal(b1-4)Glc = target: Neu5Ac(a2-6)Gal(b1-4)Glc
Summary of the method: as §1

[37] = target: Neu5Ac(a2-6)Gal(b1-4)GlcNAc
Summary of the method: as §1

[38] = target: Neu5Ac(a2-6)Gal(b1-4)GlcNAc(b1-2)Man
Summary of the method: as §1

[39] = target: Neu5Ac(a2-6)Gal(b1-4)GlcNAc(b1-2)Man(a1-3)Man(b1-4)GlcNAc(b1-4)GlcNAc
Summary of the method: as §1

[40] = target: Neu5Ac(a2-6)Gal(b1-4)GlcNAc(b1-2)Man(a1-3)[Gal(b1-4)GlcNAc(b1-2)Man(a1-6)]Man(b1-4)GlcNAc(b1-4)GlcNAc
Summary of the method: as §1

[41] = target: Neu5Ac(a2-6)Gal(b1-4)GlcNAc(b1-2)Man(a1-3)[GlcNAc(b1-2)Man(a1-6)]Man(b1-4)GlcNAc(b1-4)GlcNAc
Summary of the method: as §1

[42] = target: Neu5Ac(a2-6)Gal(b1-4)GlcNAc(b1-2)Man(a1-3)[GlcNAc(b1-4)][Neu5Ac(a2-6)Gal(b1-4)GlcNAc(b1-2)Man(a1-6)]Man(b1-4)GlcNAc(b1-4)GlcNAc
Summary of the method: as §1

B1: LngA (Escherichia coli) (protein)
chain: MLSVYNRTQKFKAEARKKIAKYHELRKQRGMSLLEVIIVLGIIGTIAAGVVILAQRAFDSRAVTDLVTNTNTVRVRMKDAYQRDGKYPDFVDPLSLTANTIKTDTSGIPAAQLVQLGKITPDEVRNNISGDFIAIGGALTSNGAQVKKGFAIELNGLSQEQCRSILGQVGNNWEYVAIGTSASGSYAMTATGVDMSVAASTTVLRSLGNNGQTTLTADKILSTCTAQVNSITLGSR
[1]
  glycan array binding signal (z-score): -0.407
[2]
  glycan array binding signal (z-score): -0.321
[3]
  glycan array binding signal (z-score): -0.539
[4]
  glycan array binding signal (z-score): -0.531
[5]
  glycan array binding signal (z-score): -0.515
[6]
  glycan array binding signal (z-score): -0.593
[7]
  glycan array binding signal (z-score): -0.062
[8]
  glycan array binding signal (z-score): -0.508
[9]
  glycan array binding signal (z-score): 1.17
[10]
  glycan array binding signal (z-score): -0.253
[11]
  glycan array binding signal (z-score): -0.429
[12]
  glycan array binding signal (z-score): 0.158
[13]
  glycan array binding signal (z-score): 2.73
[14]
  glycan array binding signal (z-score): -0.44
[15]
  glycan array binding signal (z-score): -0.3
[16]
  glycan array binding signal (z-score): -0.344
[17]
  glycan array binding signal (z-score): -0.422
[18]
  glycan array binding signal (z-score): -0.439
[19]
  glycan array binding signal (z-score): -0.401
[20]
  glycan array binding signal (z-score): -0.589
[21]
  glycan array binding signal (z-score): 0.287
[22]
  glycan array binding signal (z-score): -0.591
[23]
  glycan array binding signal (z-score): -0.503
[24]
  glycan array binding signal (z-score): -0.536
[25]
  glycan array binding signal (z-score): -0.43
[26]
  glycan array binding signal (z-score): -0.225
[27]
  glycan array binding signal (z-score): 1.03
[28]
  glycan array binding signal (z-score): -0.346
[29]
  glycan array binding signal (z-score): -0.286
[30]
  glycan array binding signal (z-score): -0.54
Neu5Ac(a2-3)GalNAc
  glycan array binding signal (z-score): -0.363
[31]
  glycan array binding signal (z-score): -0.567
[32]
  glycan array binding signal (z-score): -0.536
[33]
  glycan array binding signal (z-score): -0.565
[34]
  glycan array binding signal (z-score): -0.07
[35]
  glycan array binding signal (z-score): -0.367
Neu5Ac(a2-6)Gal
  glycan array binding signal (z-score): -0.107
[36]
  glycan array binding signal (z-score): -0.533
Neu5Ac(a2-6)Gal(b1-4)Glc
  glycan array binding signal (z-score): -0.2
[37]
  glycan array binding signal (z-score): -0.405
[38]
  glycan array binding signal (z-score): -0.028
[39]
  glycan array binding signal (z-score): -0.351
[40]
  glycan array binding signal (z-score): -0.321
[41]
  glycan array binding signal (z-score): -0.512
[42]
  glycan array binding signal (z-score): -0.423
